The values below come from the supplement of paper PMC11417369.

The list shows a part of the results.

For the assay, the system named is PF3D7_0420300 AP2 domain 1 (GST-tagged). The assay is described as follows: gcPBM binding intensity (ln(normalized median fluorescence intensity)); higher = stronger DNA binding. In a few lines: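 Alexa488 anti-GST antibody, scanned at 488 nm, detected GST-tagged P. falciparum DNA-binding domains that had been expressed in E. coli and incubated for 1 h on an Agilent 4 × 180k array. The array carried primer-extended double-stranded 36-bp intergenic genomic probes and negative controls. Binding intensity is the highest Masliner-normalised natural-log median intensity across replicate spots of either orientation of each probe.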
For the sequence “TGAAATTTTTATACATGTACAAAATTAAATATAACA [XGTACX_site7324]”, the “gcPBM binding intensity (ln)” value is 9.13.

Take “TATAATAATAATAATAGTACGTATTATTAAAAAACT [XGTACX_site10]”: the “gcPBM binding intensity (ln)” value is 9.29.

With “ATATTACACATATATGCACACATTGTAGTTATTTAT [CACACA_site8843]”, the “gcPBM binding intensity (ln)” value was found to be 9.7.

For the sequence “TAATAAGTAAAAAAATGTACCCGTTAGGTTTAATAA [XGTACX_site638]”, the “gcPBM binding intensity (ln)” value amounted to 9.14.

As to “AAAATAATATTTAATACACACACCAGTTCTGCAAAT [CACACA_site3736]”, the “gcPBM binding intensity (ln)” value is 9.82.

With “TTTTTTTATTTTATTTTATTATCTTATGTATCACAA [CACACA_negctrl_site1755]”, the “gcPBM binding intensity (ln)” value stood at 9.22.

Take “TTTTTCTCTCTCTTATTATACAACAACAAAAAAAAA [GTGCAC_negctrl_site178]”: the “gcPBM binding intensity (ln)” value is 8.79.

For the sequence “AGAAATATATATATATATATATGTGACAATATTTGT [TGCATGCA_negctrl_site282]”, the “gcPBM binding intensity (ln)” value came out at 9.45.

Turning to “ACAAAAAGGTAATTTACACACTGCATATAGGAATAA [CACACA_site2929]”, the “gcPBM binding intensity (ln)” value is 9.57.

For the sequence “TTTATATTCTTAAGTGTGCACTATATATATATATAT [GTGCAC_site9719]”, the “gcPBM binding intensity (ln)” value turned out to be 9.33.

Turning to “ACCCTATATGTAACTACACACCGCATATTGTTTACT [CACACA_site3071]”, the “gcPBM binding intensity (ln)” value worked out at 10.

On to “TTTGTTCATATTATTGTGCACTTAAACGTAACAAAA [GTGCAC_site9505]”, for which the “gcPBM binding intensity (ln)” value came out at 9.08.

For “ATGTATGTATATACTTGTACATATTCATATTAGTAT [XGTACX_site1118]”, the “gcPBM binding intensity (ln)” value amounted to 9.18.

As to “AATGTAGCATTTTATCGTACACTTAATACAAAAAAG [XGTACX_site6214]”, the “gcPBM binding intensity (ln)” value turned out to be 8.97.

In the case of “GATATTGAGAAAGGGTGTACAAGATATTATACTATA [XGTACX_site3598]”, the “gcPBM binding intensity (ln)” value was 9.26.

For “AATAGAAAAAAATAAGTGCATTTTGGTATTCATCAT [GTGCAC_site9614]”, the “gcPBM binding intensity (ln)” value stood at 9.31.

In the case of “AAATTTATATTCATTTGTACGTAATTTAAATTATAC [XGTACX_site5870]”, the “gcPBM binding intensity (ln)” value was 9.15.

Consider “ACATAAATAATAAAAACACACATATGTACATATATA [CACACA_site1913]”, for which the “gcPBM binding intensity (ln)” value is 9.75.

Take “TTTTATGTAATTATTTGTACATATGCCTCTTAAACT [XGTACX_site748]”: the “gcPBM binding intensity (ln)” value was 9.19.

As to “AAAAAAAAAAAGCACACACACATATGTGTATTTATA [CACACA_site6578]”, the “gcPBM binding intensity (ln)” value was 9.93.

As for “ACAAAATATACAAAATGTACAAAATTTACAAAATGT [XGTACX_site3544]”, the “gcPBM binding intensity (ln)” value was 9.32.

Consider “TACTAGCAAATACATACACACACACCCATATACATA [CACACA_site9163]”, for which the “gcPBM binding intensity (ln)” value is 10.1.

Take “ATGCACTCATTGTGCACACGCATATTACGAAAAGAA [CACACA_site2638]”: the “gcPBM binding intensity (ln)” value amounted to 9.24.

Consider “AAAAAAAAAAAAAACACACACACACCCATACAAAAT [CACACA_site1446]”, for which the “gcPBM binding intensity (ln)” value came to 10.1.

With “AATAAATAAAAAACATGTACAAATATAATATAGCAT [XGTACX_site6429]”, the “gcPBM binding intensity (ln)” value was 9.82.

Take “AAGATTTGAAAAAATACACACAATAAAAAAATAAAA [CACACA_site3281]”: the “gcPBM binding intensity (ln)” value was determined as 9.67.

With “TATATATATATGTGTATACACACCTGATAAAGGTAT [CACACA_site2653]”, the “gcPBM binding intensity (ln)” value came to 9.42.

Take “TATACATATGAAAATACACACATACATACCTATATA [CACACA_site6888]”: the “gcPBM binding intensity (ln)” value amounted to 9.68.

As for “TATTTAACACCTTATACACACTTTCTTCCTTTTTTA [CACACA_site4590]”, the “gcPBM binding intensity (ln)” value worked out at 9.65.

“TAATTGTACGCCAATACACACAGAATTATAATGTAG [CACACA_site6201]”: the “gcPBM binding intensity (ln)” value was 9.54.

Regarding “TAAAATATTACGTGTACACATAAATAAAAATAAAAA [CACACA_site5066]”, the “gcPBM binding intensity (ln)” value turned out to be 9.26.

“TTTTATATTCCACAAAAAATTATATAATAATAGAAC [CACACA_negctrl_site1741]”: the “gcPBM binding intensity (ln)” value came out at 9.18.

Take “GTAATATATACAAAATGTACAAAACAATAACATGAT [XGTACX_site8575]”: the “gcPBM binding intensity (ln)” value amounted to 9.63.

Turning to “ATCCAAACAAATAAAACATGCATAATATATATATAT [TGCATGCA_site766]”, the “gcPBM binding intensity (ln)” value amounted to 9.62.

Consider “CTCAAATAATTTTTTACACACATTATTTGAAATAAG [CACACA_site1290]”, for which the “gcPBM binding intensity (ln)” value turned out to be 9.37.

In the case of “ATGCTTTTATAAATAATTAAAAAAAAAAAAAAAAAA [TGCATGCA_negctrl_site533]”, the “gcPBM binding intensity (ln)” value came out at 8.33.

On to “TTTTTTTTTAATATTTGTACACAACATGAAACATTT [XGTACX_site473]”, for which the “gcPBM binding intensity (ln)” value turned out to be 8.97.

Turning to “AAAAGGAATATAATCATTCAAAAATATAATATATAT [GTGCAC_negctrl_site551]”, the “gcPBM binding intensity (ln)” value was 9.17.

Regarding “TTACATAATTTCTGCTGTACCAATTTTGAGAAGTTG [XGTACX_site4023]”, the “gcPBM binding intensity (ln)” value was found to be 9.16.

Take “ATGTAAATATATATATGTACTAATTAGTAGTTTACG [XGTACX_site6271]”: the “gcPBM binding intensity (ln)” value is 9.32.

For “TCCTTATTACTTTTTTAAGTCGTAATGAAAGAAAAA [CACACA_negctrl_site1497]”, the “gcPBM binding intensity (ln)” value is 8.62.

Take “TTTTATAAATTATAATTCTATTATCTGTTCTTTTTA [TGCATGCA_negctrl_site487]”: the “gcPBM binding intensity (ln)” value came out at 9.25.

On to “CATACATACATACATACACACATACAGATATATATA [CACACA_site4890]”, for which the “gcPBM binding intensity (ln)” value was 9.84.

As to “ATCTTAACTCTATGCACACATAAAAGTATATAAATA [CACACA_site2256]”, the “gcPBM binding intensity (ln)” value is 9.32.
